# Assay results: the supplement of paper PMC8728848
# Some of the results follow.
# B1: OrysaEULS2 (Oryza sativa) (protein)
# chain: MVYCRANPNYAMTARNGAVVLAPANPKDEYQHWIKDMRWSTSIKDEEGYPAFALVNKATGQAIKHSLGQSHPVRLVPYNPEVMDESVLWTESRDVGNGFRCIRMVNNIYLNFDAFHGDKYHGGVRDGTDIVLWKWCEGDNQRWKIQPYYILEQKLISEEDLNSAVDHHHHHH
# How the values were obtained:
# Experiment in all cases: glycan array binding signal (z-score within array); higher = stronger binding
# Details in all cases: glycan notation: IUPAC condensed, linker removed
# [1] = biological target: Fuc(a1-2)Gal(b1-4)[Fuc(a1-3)]GlcNAc(b1-3)Gal(b1-4)[Fuc(a1-3)]GlcNAc
# Method in brief: (§1)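 Negative Z-scores can be read as non-binding. The Z-score is calculated within each array and then averaged across arrays of one protein sequence at different concentrations or buffers and across linkers. Arrays, 3228 in all, were curated from the Consortium for Functional Glycomics database and kept only where the protein sequence was available.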
# [2] = biological target: Fuc(a1-2)Gal(b1-4)[Fuc(a1-3)]GlcNAc(b1-3)Gal(b1-4)[Fuc(a1-3)]GlcNAc(b1-3)Gal(b1-4)[Fuc(a1-3)]GlcNAc
# Method in brief: as §1
# [3] = biological target: Fuc(a1-2)Gal(b1-4)[Fuc(a1-3)]GlcNAc(b1-3)GalNAc
# Method in brief: as §1
# [4] = biological target: Fuc(a1-2)Gal(b1-4)[Fuc(a1-3)]GlcNAc(b1-3)[Neu5Ac(a2-6)Gal(b1-4)GlcNAc(b1-6)]Gal(b1-4)Glc
# Method in brief: as §1
# [5] = biological target: Fuc(a1-2)Gal3S(b1-4)GlcNAc
# Method in brief: as §1
# [6] = biological target: Fuc(a1-2)Gal6S(b1-3)GlcNAc
# Method in brief: as §1
# [7] = biological target: Fuc(a1-2)Gal6S(b1-3)GlcNAc6S
# Method in brief: as §1
# Fuc(a1-2)Gal6S(b1-4)Glc = biological target: Fuc(a1-2)Gal6S(b1-4)Glc
# Method in brief: as §1
# [8] = biological target: Fuc(a1-2)Gal6S(b1-4)Glc6S
# Method in brief: as §1
# [9] = biological target: Fuc(a1-2)Gal6S(b1-4)GlcNAc
# Method in brief: as §1
# Fuc(a1-2)[Gal(a1-3)]Gal = biological target: Fuc(a1-2)[Gal(a1-3)]Gal
# Method in brief: as §1
# [10] = biological target: Fuc(a1-2)[Gal(a1-3)]Gal(b1-3)GalNAc
# Method in brief: as §1
# [11] = biological target: Fuc(a1-2)[Gal(a1-3)]Gal(b1-3)GalNAc(b1-3)Gal(a1-4)Gal(b1-4)Glc
# Method in brief: as §1
# [12] = biological target: Fuc(a1-2)[Gal(a1-3)]Gal(b1-3)GlcNAc
# Method in brief: as §1
# [13] = biological target: Fuc(a1-2)[Gal(a1-3)]Gal(b1-3)GlcNAc(b1-2)Man(a1-3)[Fuc(a1-2)[Gal(a1-3)]Gal(b1-3)GlcNAc(b1-2)Man(a1-6)]Man(b1-4)GlcNAc(b1-4)GlcNAc
# Method in brief: as §1
# [14] = biological target: Fuc(a1-2)[Gal(a1-3)]Gal(b1-3)GlcNAc(b1-2)Man(a1-3)[Fuc(a1-2)[Gal(a1-3)]Gal(b1-3)GlcNAc(b1-2)Man(a1-6)]Man(b1-4)GlcNAc(b1-4)[Fuc(a1-6)]GlcNAc
# Method in brief: as §1
# [15] = biological target: Fuc(a1-2)[Gal(a1-3)]Gal(b1-3)GlcNAc(b1-3)GalNAc
# Method in brief: as §1
# [16] = biological target: Fuc(a1-2)[Gal(a1-3)]Gal(b1-3)GlcNAc(b1-6)GalNAc
# Method in brief: as §1
# [17] = biological target: Fuc(a1-2)[Gal(a1-3)]Gal(b1-4)Glc
# Method in brief: as §1
# [18] = biological target: Fuc(a1-2)[Gal(a1-3)]Gal(b1-4)GlcNAc
# Method in brief: as §1
# [19] = biological target: Fuc(a1-2)[Gal(a1-3)]Gal(b1-4)GlcNAc(b1-2)Man
# Method in brief: as §1
# [20] = biological target: Fuc(a1-2)[Gal(a1-3)]Gal(b1-4)GlcNAc(b1-2)Man(a1-3)[Fuc(a1-2)[Gal(a1-3)]Gal(b1-4)GlcNAc(b1-2)Man(a1-6)]Man(b1-4)GlcNAc(b1-4)GlcNAc
# Method in brief: as §1
# [21] = biological target: Fuc(a1-2)[Gal(a1-3)]Gal(b1-4)GlcNAc(b1-2)Man(a1-3)[Fuc(a1-2)[Gal(a1-3)]Gal(b1-4)GlcNAc(b1-2)Man(a1-6)]Man(b1-4)GlcNAc(b1-4)[Fuc(a1-6)]GlcNAc
# Method in brief: as §1
# [22] = biological target: Fuc(a1-2)[Gal(a1-3)]Gal(b1-4)GlcNAc(b1-3)GalNAc
# Method in brief: as §1
# [23] = biological target: Fuc(a1-2)[Gal(a1-3)]Gal(b1-4)GlcNAc(b1-3)[Fuc(a1-2)[Gal(a1-3)]Gal(b1-4)GlcNAc(b1-6)]GalNAc
# Method in brief: as §1
# [24] = biological target: Fuc(a1-2)[Gal(a1-3)]Gal(b1-4)GlcNAc(b1-6)GalNAc
# Method in brief: as §1
# [25] = biological target: Fuc(a1-2)[Gal(a1-3)]Gal(b1-4)[Fuc(a1-3)]Glc
# Method in brief: as §1
# [26] = biological target: Fuc(a1-2)[Gal(a1-3)]Gal(b1-4)[Fuc(a1-3)]GlcNAc
# Method in brief: as §1
# [27] = biological target: Fuc(a1-2)[Gal(a1-3)]Gal(b1-4)[Fuc(a1-3)]GlcNAc(b1-3)GalNAc
# Method in brief: as §1
# [28] = biological target: Fuc(a1-2)[Gal(a1-4)]Gal(b1-4)GlcNAc
# Method in brief: as §1
# [29] = biological target: Fuc(a1-2)[GalNAc(a1-3)]Gal
# Method in brief: as §1
# [30] = biological target: Fuc(a1-2)[GalNAc(a1-3)]Gal(b1-3)GalNAc(a1-3)[Fuc(a1-2)]Gal(b1-4)GlcNAc
# Method in brief: as §1
# [31] = biological target: Fuc(a1-2)[GalNAc(a1-3)]Gal(b1-3)GalNAc(b1-3)Gal(a1-4)Gal(b1-4)Glc
# Method in brief: as §1
# [32] = biological target: Fuc(a1-2)[GalNAc(a1-3)]Gal(b1-3)GlcNAc
# Method in brief: as §1
# [33] = biological target: Fuc(a1-2)[GalNAc(a1-3)]Gal(b1-3)GlcNAc(b1-2)Man(a1-3)[Fuc(a1-2)[GalNAc(a1-3)]Gal(b1-3)GlcNAc(b1-2)Man(a1-6)]Man(b1-4)GlcNAc(b1-4)GlcNAc
# Method in brief: as §1
# [34] = biological target: Fuc(a1-2)[GalNAc(a1-3)]Gal(b1-3)GlcNAc(b1-2)Man(a1-3)[Fuc(a1-2)[GalNAc(a1-3)]Gal(b1-3)GlcNAc(b1-2)Man(a1-6)]Man(b1-4)GlcNAc(b1-4)[Fuc(a1-6)]GlcNAc
# Method in brief: as §1
# [35] = biological target: Fuc(a1-2)[GalNAc(a1-3)]Gal(b1-3)GlcNAc(b1-3)GalNAc
# Method in brief: as §1
# [36] = biological target: Fuc(a1-2)[GalNAc(a1-3)]Gal(b1-3)GlcNAc(b1-6)GalNAc
# Method in brief: as §1
# [37] = biological target: Fuc(a1-2)[GalNAc(a1-3)]Gal(b1-4)Glc
# Method in brief: as §1
# [38] = biological target: Fuc(a1-2)[GalNAc(a1-3)]Gal(b1-4)GlcNAc
# Method in brief: as §1
# [39] = biological target: Fuc(a1-2)[GalNAc(a1-3)]Gal(b1-4)GlcNAc(b1-2)Man
# Method in brief: as §1
# [40] = biological target: Fuc(a1-2)[GalNAc(a1-3)]Gal(b1-4)GlcNAc(b1-2)Man(a1-3)[Fuc(a1-2)[GalNAc(a1-3)]Gal(b1-4)GlcNAc(b1-2)Man(a1-6)]Man(b1-4)GlcNAc(b1-4)GlcNAc
# Method in brief: as §1
# [41] = biological target: Fuc(a1-2)[GalNAc(a1-3)]Gal(b1-4)GlcNAc(b1-2)Man(a1-3)[Fuc(a1-2)[GalNAc(a1-3)]Gal(b1-4)GlcNAc(b1-2)Man(a1-6)]Man(b1-4)GlcNAc(b1-4)[Fuc(a1-6)]GlcNAc
# Method in brief: as §1
# [42] = biological target: Fuc(a1-2)[GalNAc(a1-3)]Gal(b1-4)GlcNAc(b1-3)Gal(b1-4)GlcNAc
# Method in brief: as §1
# [43] = biological target: Fuc(a1-2)[GalNAc(a1-3)]Gal(b1-4)GlcNAc(b1-3)Gal(b1-4)GlcNAc(b1-3)Gal(b1-4)GlcNAc
# Method in brief: as §1
binder,measurement,setting,value
B1,glycan array binding signal (z-score),[1],-0.2
same,glycan array binding signal (z-score),[2],-0.194
same,glycan array binding signal (z-score),[3],-0.025
same,glycan array binding signal (z-score),[4],-0.211
same,glycan array binding signal (z-score),[5],-0.255
same,glycan array binding signal (z-score),[6],-0.206
same,glycan array binding signal (z-score),[7],-0.141
same,glycan array binding signal (z-score),Fuc(a1-2)Gal6S(b1-4)Glc,-0.187
same,glycan array binding signal (z-score),[8],-0.166
same,glycan array binding signal (z-score),[9],-0.173
same,glycan array binding signal (z-score),Fuc(a1-2)[Gal(a1-3)]Gal,-0.205
same,glycan array binding signal (z-score),[10],-0.185
same,glycan array binding signal (z-score),[11],-0.248
same,glycan array binding signal (z-score),[12],-0.108
same,glycan array binding signal (z-score),[13],-0.081
same,glycan array binding signal (z-score),[14],-0.193
same,glycan array binding signal (z-score),[15],-0.18
same,glycan array binding signal (z-score),[16],-0.168
same,glycan array binding signal (z-score),[17],-0.183
same,glycan array binding signal (z-score),[18],-0.167
same,glycan array binding signal (z-score),[19],-0.257
same,glycan array binding signal (z-score),[20],0.767
same,glycan array binding signal (z-score),[21],0.012
same,glycan array binding signal (z-score),[22],-0.198
same,glycan array binding signal (z-score),[23],-0.24
same,glycan array binding signal (z-score),[24],-0.21
same,glycan array binding signal (z-score),[25],-0.208
same,glycan array binding signal (z-score),[26],-0.195
same,glycan array binding signal (z-score),[27],-0.208
same,glycan array binding signal (z-score),[28],-0.183
same,glycan array binding signal (z-score),[29],-0.184
same,glycan array binding signal (z-score),[30],-0.156
same,glycan array binding signal (z-score),[31],-0.245
same,glycan array binding signal (z-score),[32],-0.189
same,glycan array binding signal (z-score),[33],-0.127
same,glycan array binding signal (z-score),[34],-0.207
same,glycan array binding signal (z-score),[35],-0.178
same,glycan array binding signal (z-score),[36],-0.158
same,glycan array binding signal (z-score),[37],-0.205
same,glycan array binding signal (z-score),[38],-0.2
same,glycan array binding signal (z-score),[39],-0.261
same,glycan array binding signal (z-score),[40],0.423
same,glycan array binding signal (z-score),[41],-0.189
same,glycan array binding signal (z-score),[42],-0.187
same,glycan array binding signal (z-score),[43],-0.175
